Values marked as one replicate rest on one cluster of the flow cell; about a third of the high ones do not repeat.

This data set deals with ATP. In words: switch fluorescence ratio, 500 uM ATP over buffer (Cy3 cluster intensity, sum of 5 cycles each) (fold (ratio)); higher = stronger signal-on switching upon ATP binding; sequences stand for … in TCGTCGGCAGCGTCAGATGTGTATAAGAGACAGTTTTTTTTTTTTTTTTTTTTTTTTT…TC. The conditions noted are these: aptamer strand: ATP DNA aptamer (quencher-CACCTGGGGGAGTATTGCGGAGGAAGG + anchor), 100 nM annealed; ATP concentration: 500 uM; one replicate. The method in brief:
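Switching-strand clusters labelled with Cy3 on a modified Illumina MiSeq flow-cell were annealed to 100 nM quencher-labelled ATP aptamer, imaged in selection buffer, and re-imaged after 15 min with 500 uM ATP at 22 °C. This was done over five cycles with NaOH stripping and re-annealing in between. The fluorescence ratio is summed target-cycle over summed buffer-cycle Cy3 intensity per cluster, averaged per switch-domain sequence, excluding clusters outside 100-1000 RFU.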
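Note: ATP exposure 15 min at 22 °C before imaging.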

Turning to GCGCGGGGGC, the switch fluorescence ratio worked out at 1.04.
For ACTCGCATTA, the switch fluorescence ratio was 5.25.
The figure for CTTCTGATTC is 1.6.
Take CTCCTAGTAG: the switch fluorescence ratio was 1.19.
For the sequence GGAACCCCCT, the switch fluorescence ratio came to 1.39.
For GCTTTAGA, the switch fluorescence ratio amounted to 1.01.
For TCGGTGAGTT the value was 0.999; for CGGCTGCCGC, 1.05.
As to GTTTCTAAGG, the switch fluorescence ratio came to 0.978.
For GCCCGACTTT the value was 0.966.
For AAAAGGGTCA the value was 0.995; for CGAAGTACGT, 1.08.
For TGCTCGTTGG the value was 1; for GCCCTTGGAA, 0.998; for CATGGAGGT, 1.01.
On to TTCGGTCGA, for which the switch fluorescence ratio was 1.03.
Turning to CCCTTCTTCA, the switch fluorescence ratio was 1.1.
The figure for TCACTCTGGC is 0.942; for CTTGCATATG it is 1.02.
The figure for GGTGTTGCG is 0.976; for GCGTCTAAGT it is 1.02; for ATCAGGCTTG it is 0.989.
The figure for ATATCCGTGG is 1.01; for AATTCGGAAG it is 0.992.
Regarding GAAGTAAGTT, the switch fluorescence ratio was found to be 0.997.
As for GACTTATGTT, the switch fluorescence ratio came out at 0.995.
Turning to AGGTAGGAGA, the switch fluorescence ratio stood at 1.04.
The figure for ATGTGCTTCT is 0.972; for TCAAGAAATG it is 1.51.
As to ATTTTTCACT, the switch fluorescence ratio amounted to 1.
With ATATGTTAGG, the switch fluorescence ratio was 0.995.
For GATATTCCAA the value was 1.03; for CGGTGATTAG, 1.01.
For TGTAACCGTT the value was 0.97.
As to GTCAGCAGCT, the switch fluorescence ratio came out at 0.964.
For TCTATGTGTA the value was 1.03; for TTTAGCTGCT, 0.955.
For GCAAGTTTGA the value was 1.03; for GCCGCTCAAG, 1.02; for TATGGTTAAC, 1.04.
For GGGGCGTAG the value was 0.929; for TGATTGTGGA, 0.995.
As for AGATAGTGTC, the switch fluorescence ratio stood at 1.04.
For GACCCGACTG the value was 1.01; for CACGCCATTT, 1.13; for AGTCTGTAGA, 1.06.
For TTAAGGTCAA the value was 0.999.
As to TTCATCGG, the switch fluorescence ratio was 1.13.
For the sequence CTTTGTTTGC, the switch fluorescence ratio is 1.07.
The figure for TAACCAGGAG is 1.12; for TAGACCGGTC it is 1.02.
Regarding TACGCGTTAT, the switch fluorescence ratio is 1.02.
For GGGTTCGTAG the value was 0.993.
The figure for CCTCACAGCG is 1.7; for GATGATGGTA it is 1.01; for TATACGTGTA it is 1.05.
The figure for TGCACTTGCT is 1.07; for AACTTGTTGG it is 1.01.
On to AGCAGGGTGC, for which the switch fluorescence ratio turned out to be 1.02.
The figure for TCCCACCCCA is 1.05; for GTTCTATTTG it is 1.05.
For GATTAAAAGA, the switch fluorescence ratio was found to be 1.16.
The figure for GCGGCAGCAG is 0.989; for ATGCTACTAA it is 1.1; for TCTCCTAACT it is 1.08.
The figure for AGGCTGTTA is 0.974; for GTGAGCCCCG it is 1.03.

The values above are taken from the supplement of paper PMC10126150.
